# Experimental data from PubChem BioAssay (NCI).
# A structure can be active in one record and inactive in another.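 Results are percent growth after 48 hours of single-concentration exposure. 100 means growth as in untreated cells, lower positive values show inhibition; negative values down to -100 show cell death.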 The source holds more than one record for some entries. Only these are listed. The calls were made as follows: active = growth percent below 10; inactive = the rest. The source may hold further records. The screen tested this drug many times, at the concentration stated with the values; one value stands for one run. Counts like (3×) say how often a value occurs here.
# Legend:
# Experiment in all cases: NCI-60 one-dose screen, 48 h (100 = growth as untreated, 0 = no growth, -100 = all killed)
# Details in all cases: 2.5 mM
# SW-620 colon = system: SW-620 colon
# MCF7 breast = system: MCF7 breast
# HCT-116 colon = system: HCT-116 colon
structure (smiles),measurement,setting,value
O=c1[nH]cc(F)c(=O)[nH]1,growth,SW-620 colon; runs of 1998,"active: -19.9%, 0.873% and inactive: 38.9, 29.1, 25.3, 50.5, 26.4 (2×), 22.7, 15.2, 21.5, 30.6, 12.6, 28.1, 35.2, 21.2, 34.1, 21.3, 26.1, 22.2, 25.1, 22.9%"
same,growth,SW-620 colon; runs of 1999,"active: -6.85, 5.02, -48.9, 1.72, 3.04, -47.2, 2.34, 1.79, 1.78, -51.4, 6.91, 2.76, 6.44% and inactive: 30.6, 24.6, 32, 27.8%"
same,growth,SW-620 colon; runs of 2000,"active: 5.05, 2.88, 5.87, 2.59%"
same,growth,MCF7 breast; runs of 1993,"inactive: 11.8, 10.3, 11.5, 23.8, 12.5, 15.2, 20.8, 15.7, 13.5, 15.5, 10.7, 12.7, 97.9, 13.2, 72.3, 10.4, 10.5, 10.9, 12.2% and active: 2.98, -3.88, 7.74, -11.2, 7.08, 4.94, -22.1, 9.42, 6.99, 2.61, -6.58, 7.78, 5.82, 5.58, 6.57, 6.54, 6.33, 4.82, 7.3, -10.9, 4.16, 6.05, 2.59, 1.5, 5.32, 4.31, 9.17%"
same,growth,MCF7 breast; runs of 1994,"inactive: 11.1, 10.6 (2×), 13.6, 13.2, 13.8, 18.1, 16.2, 30.9, 28, 27.2, 21.1% and active: 3.11, -66.1, 5.72, 4.95, 2.64, 7, -37.1, 3.79, 3.82, 0.773, 7.72, -53.1, 8.55, -9.68, -8.96, -12.8, 5.63, 5.98, -5.06, 3.83%"
same,growth,MCF7 breast; runs of 1995,"inactive: 30.5, 11.1, 14.2, 41.9, 13.2, 198, 10.6, 17.3, 38, 11.7, 21, 10.5, 10.7, 15.2, 26, 12.7, 20.9, 11.9, 10.1% and active: 4.19, 9.17, -25.4, 2.28, -0.217, -21.8, -13.8, 4.42, -25.8, -28.5, -20, 7.55, 0.786, 0.342, 1.41, 5.62, 7.41, 7.15, -8.64, -23.6, 5.24, 5.88, 4.82, 5.69, 5.44, 6.94, 1.32, 0.0943, 8.7, -3.09, -6.9, 8.88, 5.51, -53.8, -55.6%"
same,growth,MCF7 breast; runs of 1996,"active: 3.98, 5.63, -35.8, 1.69, 0.778, 0.735, -9.06, -2.5, -14.9, -71.3, -100 (9×), -97.9, 5.3 (2×), -1.97, -6.87, 4.88, 0.363, 7.57, -69.9, 5.7, 3.4, -12, -85.6, 0.288, 1.87, 4.1, 6.79, 4.65, 2.47, 8.96, -51.7, 8.36, 0.49, -27.7, 0.527, -96.7, -61.7, 7.24, 4.3, 5.55, 9.59, 3.68, -77.1, -86.9, 4.71, 9.51, 5.72, 2.31, 2.02, -15.5, 3.03, 3.46, 6.24, 3.76, 7.74, 3.23, 7.02, -35.9, 8.99, 2.74, 0.304, -19, 7.37, 4.09, 7.54, 6.06, 3.97, -12.4, 5.48, 6.54, -37.6, -16.7% and inactive: 10.1, 13.6, 98.9, 102, 80.7, 64.7, 22.3, 16.5 (2×), 10.4 (3×), 15.3, 12.2, 18.5, 25.8, 12.8, 10.3, 11.1, 16.2, 11.7, 20.5, 12.1, 10.6, 19.5, 21.3, 12.6, 18.2, 34.9, 37.3, 26.1, 14.2, 13.3, 21%"
same,growth,MCF7 breast; runs of 1997,"active: -81.2, 7.63, -8.78, -12.7, -18.4, 7, 4.46, 1.21, 5.52, 5.57, -68.5, -16.8, 6.63, 5.71, 9.57, -100, 7.7, -14, 7.58, 5.09, -14.8, 8.31, -12.6, 4.02, 1.71, 4.12, -11.8, -20.3, 9.43, -15.3, 1.37, 7.08, -23.5, -50, -63.6, -90.3, 8.73, -25.7, -0.37% and inactive: 10.2, 18.1, 18, 14.8, 87.4, 13.5, 25.8, 22.2, 10, 15.4, 10.9, 28.2, 13.4, 16.4, 17.8, 16.8, 13.9, 20.3, 80, 78.4, 33.9, 12, 14.7%"
same,growth,MCF7 breast; runs of 1998,"inactive: 95.9, 14.4, 25.2, 16.7, 15.4, 23.6, 16.4, 14.8, 10.2, 12.6, 13.9, 12.2, 14.7, 13, 12.7, 13.3, 27.6% and active: -27.5, -4.43, -4.75, -5.41, -5.74, -3.89, -70.2, -68.1 (2×), -71.3, -72.5, 5.42 (2×), 3.85 (2×), -2.42, -0.906, 8.33, 4.01, 4.94, 3.89, 7.78, 4.06, 5.68, 9.06 (2×), 4.49, 5.7, 8.63, 7.54, -4.63, -41.4, 5.39, 1.69, -15.5, -19.9, 3.54, 1.24, 7.15, 3.8, 9.24 (2×), 4.75, -0.743, -2.59, -11.1, 5.98, -2.94, 0.314, 3.93, 4.82, 2.05, 6.87, 4.72, 0.633%"
same,growth,MCF7 breast; runs of 1999,"active: -62, 7.84, 3.87, 0.0578, -60.1, 4.94, 9.55, 5.26, -2.75, 9.88, 3.71, 2.25, 2, 2.78 (2×), 6.5, 4.64, 0.375, 2.82, 6.81, 7.49, 3.11, 9.03, 3.96, 8.13, 4.44, 8.39, 4.8, 5.76, 6.62, -100 (2×), -4.62, 0.503, -72.6, 2.19, 6.59, 4.46, 5.88, 8.38, -79.6, -15, -86.2, -86.3, -80.2% and inactive: 12.4, 10.7, 10.1, 12, 11.3%"
same,growth,MCF7 breast; runs of 2000,"active: -84.3, 0.143, 1.04, -90.3%"
same,growth,HCT-116 colon; runs of 1991,"active: 5.21, 4.57, -26.9, -68.3, -51.7, -50.6, -97.4, -98.6, -16.7, 1.09, -79.8, -71.7, -98.2, -25.4, -57.3, -56.7, -81.2, -96.8, -94%"
same,growth,HCT-116 colon; runs of 1992,"active: -44 (2×), -81.6 (2×), -89.9 (2×), -73.7, -96.1, -95.9, -17.5, -77.9, -36, -70.2, -53.2, -85, -89.8, -100 (8×), -96.9 (2×), -96.6, 0.213, -80.1 (2×), -90.2, -73, -90.8, -66.4, -99.5, -51.1, -34.4, -81.7, -93.8, -94.5, -98.8, -91.3, -74.5, -46.9, -58.8, -43, -58.6, -86.3, -97.2, -16.3, -69.6 (2×), -97.8, -99.2, -62.5, -61.4, -23.9, -74.9, -57, -69.2, -87.4, -41.2, -94.4, -70.4 (2×), -46.1, -47.1, -32.8, -79.5, -78.2, -48.8, -53.4, -82.6, -99.6, -24.4, -76.8, -81.9, -99.3, -61.3, 2.57, -83.8, -80.3, -90.9, -68.9, -62.4, -42.6, -74.7, -49.2, -63.9, -98.7 (3×), -97.6, -25.6, -62.7, -92, -61, -21.7, -88, -71.4, 0.0884, -62.2, -51.9, 2.47, 2.64, -76.5, -21, -99.8, 1.33, -51.4, -12.6, -49% and inactive: 53.1%, 79.8%"
same,growth,HCT-116 colon; runs of 1993,"active: -41, -38.8, -14.2, 2.22, 5.91, -98.1, -56, 0.395, -65.1, -41.3, -97.4, -82.3, 4.25, 1.25, -58.3, 2.07, 1.38, -58.9, -6.11, 3.84, -90.3, -95, -44.5, 3.02, -28.6, -33.2, -84.6, -42.7, -29.9, -80.9, 2.4, -75.3, -81.6, -37.9, -75.2, -78, -41.8, -49.3, -85, 1.44, -10.6, -63.9, -100, -48.6, -54% and inactive: 87.1%, 57.7%"
same,growth,HCT-116 colon; runs of 1994,"active: -24.3, -9.16, -11.6, -43.6, -16.7, -74.6, -55.2, -8.22, -34.6, -22.1, -25.7, -29.9, -97.9, -18.7, -36.8, -60.7, 3.53, 1.79, -2.9, -84.9, 1.49, -63.8, -85.6, 0.3, -52.4, -34.9, -77.7, -23.9, -48.2, -100, -3.89, 2.94, -21.6% and inactive: 30.4%"
same,growth,HCT-116 colon; runs of 1995,"active: 1.36, -97.3, 2.48, -6.97, -23.6, -39.7, -84.4, -71.5 (2×), -29.5, -96, -14.4, -25.8, -34.3, -86.8, 1.46, 7.28, -89.5, -95.2, -16.4, -72.9, -89.2, -75.6, -72.1, -40.9, -18.3, -40.8, -79.6, -41.7, 2.19, -95.5, -59.7, -60.9, -54.8, -54.5, -28.6, -68, -12.3, -11, -22.3%"
same,growth,HCT-116 colon; runs of 1996,"active: -20.4, -65.3, -95.5, -71.9, -47.9, -97.1, -34.6 (2×), -28, -37.3, -77.5, -43.5, -16.7, -35.8, -61.4, -99.5, -93.1, 0.154, -35, -51.6, -77.8, 1.45, 4.34, -43.7, -13.8, -87.6, -49, 1.13, -2.99, 1.32, -30.3, -76.8, -74.7, -46.5, -2.16, 2.08, -9.79, -66.5, -66.8, -94.2, -86.9, -33.2, -60.5 (2×), -34, -13, -28.3, -1.33, 1.86, -28.6, 8.28, -70.4, -91.2, -58.5, -43, -33, -79.6% and inactive: 10.2%"
same,growth,HCT-116 colon; runs of 1997,"active: -56.4, -22.6, -50.2, -50, -30.7, -48.8, -80.2, -59.8, -54.2, -77.2, -51 (2×), -25.3, -57.1, -73.6, -3.48, 1.39, -60.2, -11.2, -8.09, 4.18, -2.78, -26.2, -28.2, -34.8, -34.1, -80.5, -42.1, -40.2, -67.6, -13.7, -68, -55.3, 4.75, 4.21, -26.4, -76.4, -43.4, -41.4, -79.3, -89.1% and inactive: 20.6%"
same,growth,HCT-116 colon; runs of 1998,"active: -95.7, -69.5, 3.02, -74.6, -10.7, 4.4, -89.3, -52.7, -20.4, -84.7, -100, -86, -0.744, -13, -6.2, -16.5, -42.5, -3.76, -99.7, -7.51, -68.9, -1.61, -83.2, -88.2% and inactive: 11.7%"
same,growth,HCT-116 colon; runs of 1999,"inactive: 15.2% and active: -44.7, -6.05, -73.2, -19.5, -32.3, -100 (3×), -63.2, -76.6, -79.7, -90.9, -61.8, -78.8, -79.5%"
